This is an account of results in the supplement of paper PMC10126150.

Sequences with one replicate were seen in a single cluster, so their values are uncertain.

The series deals with ATP. Briefly: switch fluorescence ratio, 500 uM ATP over buffer (Cy3 cluster intensity, sum of 5 cycles each) (fold (ratio)); higher = stronger signal-on switching upon ATP binding; sequences stand for … in TCGTCGGCAGCGTCAGATGTGTATAAGAGACAGTTTTTTTTTTTTTTTTTTTTTTTTT…TC. The note with it: aptamer strand: ATP DNA aptamer (quencher-CACCTGGGGGAGTATTGCGGAGGAAGG + anchor), 100 nM annealed; ATP concentration: 500 uM; one replicate. The procedure, abridged:
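Between each of five buffer/ATP cycles, the flow-cell was stripped with NaOH and re-annealed. Each cycle imaged Cy3-labelled switching-strand clusters, annealed to 100 nM quencher-labelled ATP aptamer on a modified Illumina MiSeq flow-cell, first in selection buffer and then after 15 min with 500 uM ATP at 22 °C. The fluorescence ratio is summed target-cycle over summed buffer-cycle Cy3 intensity per cluster, averaged per switch-domain sequence, with clusters outside 100-1000 RFU excluded.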
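Note: ATP exposure 15 min at 22 °C before imaging.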

Consider CTATTTGCAC, for which the switch fluorescence ratio amounted to 1.02.
GCGGCTGTA: the switch fluorescence ratio turned out to be 1.01.
Regarding ATCTACGTCC, the switch fluorescence ratio was 1.11.
Take ACGCGGCTTT: the switch fluorescence ratio came out at 0.998.
AAATGTTGCT: the switch fluorescence ratio was 0.959.
Regarding TTTGATAC, the switch fluorescence ratio came out at 1.07.
Regarding ATAAGTTGAA, the switch fluorescence ratio was determined as 0.963.
In the case of TTTGGAACGT, the switch fluorescence ratio is 0.957.
Consider TTTGTGGAA, for which the switch fluorescence ratio is 0.945.
With AGTAGGTTAA, the switch fluorescence ratio worked out at 0.996.
As for ATTCCATCAG, the switch fluorescence ratio is 1.02.
The result for GGTTGGGC reads 1.02.
Turning to CGCTAACGGA, the switch fluorescence ratio came out at 1.1.
As to TTTTGATGCA, the switch fluorescence ratio was 1.1.
As for CGGTGTCGC, the switch fluorescence ratio was 1.05.
ATACCTGCGC: the switch fluorescence ratio is 1.42.
On to CGCCATTTGG, for which the switch fluorescence ratio came out at 0.999.
As for CTTATGAACG, the switch fluorescence ratio amounted to 1.01.
With CGTGGGTATC, the switch fluorescence ratio amounted to 0.962.
TTCTGAGGTC: the switch fluorescence ratio was 0.993.
For the sequence TTCCAAGATT, the switch fluorescence ratio amounted to 1.55.
Consider AGGACTGCGG, for which the switch fluorescence ratio worked out at 0.957.
On to ACACTCGTGG, for which the switch fluorescence ratio amounted to 1.02.
As to GGCTTGCCTG, the switch fluorescence ratio turned out to be 0.997.
Take ACACCGTTA: the switch fluorescence ratio is 1.05.
GGACTGGTGC: the switch fluorescence ratio was determined as 1.05.
The result for CGAGATTTAA reads 1.01.
Take AGGTCCAAGC: the switch fluorescence ratio was 1.03.
As for GGGAGTTTGT, the switch fluorescence ratio stood at 0.99.
GGTGAATACC: the switch fluorescence ratio was 0.949.
For TGTAGTCTTC, the switch fluorescence ratio came to 0.991.
As to ATATGCGCTT, the switch fluorescence ratio was found to be 1.02.
Turning to GAGCAGAGTA, the switch fluorescence ratio is 1.01.
As to TTGGAGTATT, the switch fluorescence ratio stood at 1.24.
Next, CGGCACCAGT: 1.01; CACCTGGTTT: 1.04; GGCTAATGCC: 1.03.
The result for AAGCGACTCA reads 1.26.
For the sequence AATCTTTTCC, the switch fluorescence ratio stood at 1.06.
In the case of AGGCAAGCTT, the switch fluorescence ratio came to 0.984.
Next, TGTCGAAACC: 1.12.
Next, GAACGTAGTA: 0.934; GGTTCGAGTT: 0.981.
As to TATCCATCGG, the switch fluorescence ratio was 0.975.
Take CAACAAATCA: the switch fluorescence ratio was 1.03.
On to ATCGTTTTAA, for which the switch fluorescence ratio is 1.
For the sequence ACGCGCTAAG, the switch fluorescence ratio came out at 1.
As to GAGAAAGGAT, the switch fluorescence ratio was 0.992.
As for ACACATATGA, the switch fluorescence ratio was determined as 1.04.
Next, CATGTTGAGG: 0.974; GGAATGCGCG: 0.919.
Consider AGGCATTGTT, for which the switch fluorescence ratio is 0.985.
TGGAACAAGT: the switch fluorescence ratio is 0.954.
For the sequence GCAATGCGCG, the switch fluorescence ratio worked out at 1.31.
Next, AATTAAGATG: 1.06; TGTGGATGAT: 0.985; TGGCTTAATG: 1.01.
Consider AAGATATGC, for which the switch fluorescence ratio was 1.02.
The result for TATATATAGC reads 0.984.
With GGAGTGGAGA, the switch fluorescence ratio stood at 1.04.
ACGGGACTGG: the switch fluorescence ratio turned out to be 1.08.
As for CGGATGAGAA, the switch fluorescence ratio is 0.969.
For CGGGTAGTGA, the switch fluorescence ratio was found to be 1.09.
Next, GAAAGATGGT: 0.999.
Take TCACTTTAT: the switch fluorescence ratio stood at 1.05.
In the case of CGGTATTTTG, the switch fluorescence ratio was 1.05.
For the sequence AAACCTAAAT, the switch fluorescence ratio was 1.07.
Consider GGAAGGTGTA, for which the switch fluorescence ratio amounted to 0.948.
As for TGCCATCGGA, the switch fluorescence ratio was found to be 0.987.
For the sequence GCCAGGGATC, the switch fluorescence ratio stood at 0.994.
Regarding GTCGATCACT, the switch fluorescence ratio was found to be 1.08.
Turning to TGAAGCGGGG, the switch fluorescence ratio was determined as 1.01.
In the case of ATGTCCATTT, the switch fluorescence ratio is 0.996.
Consider GTCGCATGGC, for which the switch fluorescence ratio came to 1.19.
In the case of ACCTATATTC, the switch fluorescence ratio was found to be 1.09.
As to TCTTTATGAG, the switch fluorescence ratio came to 0.986.
Turning to GGGGCATAAT, the switch fluorescence ratio worked out at 0.96.
Turning to GAGCCTATGG, the switch fluorescence ratio turned out to be 1.04.
